Measured values taken from the supplement of paper PMC3334620.
Over roughly 33,000 sequences, “E-score (-0.5 to 0.5)” has its median near -0.054; the highest 2% begin near 0.39. The list shows a part of the results.

Target: Ylr278c (UniProt Q05854)
Assay: PBM E-score (8-mer binding enrichment) (E-score (-0.5 to 0.5)); higher = stronger / more preferred TF binding; most listed sequences are background and not binding sites
Conditions: protein concentration: 200 nM; construct: GST-DNA-binding domain
In short: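 Masliner-normalised scans of fluorescent anti-GST signal were the basis for scoring. That signal came from GST-tagged yeast transcription factors applied at about 100-200 nM to double-stranded universal all-10-mer Agilent arrays on fresh or once-stripped slides. Each ungapped eight-base word, pooled with its reverse complement, received an E-score from the Universal PBM Analysis Suite.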

Sequence | PBM E-score
AAAAATAA | -0.035
CACGTGGG | -0.147
AGAAAATA | -0.0326
CCCGGTCC | 0.336
GCTCAAGC | -0.0197
AAGCTTGC | -0.176
GGACGCTA | -0.163
CCGTAGAA | -0.00631
ACCGCGAC | 0.0815
GGCCCATA | -0.0549
CTAGATAG | -0.28
ATACGGAA | 0.345
ACCTGCCT | -0.0457
CCGATCGA | 0.226
AGTCACGC | -0.062
TCCCAGGA | -0.166
GATAGAAA | 0.00508
AAATCTTC | 0.0924
GAATTCCA | 0.194
ACTTGGGC | -0.0315
CCTAAGAG | -0.167
AGAGAACC | -0.0147
TGGCCCCA | -0.13
ATCTTGCA | -0.00704
CCGGACAC | 0.371

Sequence | PBM E-score
GAAGCACC | -0.0183
CCGTGCAG | 0.181
GACTACTC | 0.0709
ACGTGTAC | -0.218
CTCGCCGA | 0.248
AGTATAAT | 0.114
ATCGGATC | 0.33
AGGCGTTA | -0.108
CAATCCAA | -0.164
CAAAGATA | -0.143
TACTACCA | -0.216
CGTCCAGA | -0.137
GCATATCC | 0.0103
CGAATTCG | 0.211
GAACGCGA | -0.0235
AGAGCAGA | -0.198
ATATGTAC | 0.0645
CGCGCACC | 0.136
ACCGTATA | -0.206
AGACGGAT | 0.176
ATAGAAAA | -0.142
AAGCCGCT | 0.182
CAGAGGCA | -0.153
AGATACTG | -0.153
ACTCTCAC | -0.113

Sequence | PBM E-score
CATAATAA | -0.192
AATTGCGT | 0.0881
CCTGAATA | -0.0137
CACACAGC | -0.139
AATATTGC | 0.0838
AATGACGA | -0.117
CCTTGTCA | -0.243
AGCGCTCA | -0.101
AAATGTGA | -0.146
ACACGGTC | -0.0359
AGTTACAG | -0.0524
CACGATAG | -0.119
CCAAATGA | -0.0965
AGCTGGGC | -0.156
GCAGTCAA | -0.296
CGAACGCC | 0.306
AGCGGAAT | 0.385
GATCATTA | 0.0713
AAATTCGA | -0.0592
GGCATTGA | 0.16
AGATCGAC | -0.0891
TCCACACA | -0.0159
CTAAAAAG | -0.129
CAGTGTCG | -0.0738
GCCAAGGC | -0.19

Sequence | PBM E-score
AATATTTA | -0.00225
ATGCACTG | -0.236
ATTGGGAG | 0.00712
ACCAAAGA | -0.0945
TAGCAATA | -0.0362
CACTACTC | 0.0536
AGAACAAT | -0.0683
CGTATAGC | 0.161
GTCGTAAA | -0.0945
CCAACACC | 0.0617
AAAGTGTG | -0.164
AAAACTCC | 0.386
CGCCTTCA | -0.106
AACTGGAA | -0.107
CCGCTTGC | 0.217
CATCAATC | -0.16
AGTGTGTG | -0.269
GAGGAACC | -0.0197
AATATGGA | -0.209
ATACAGCC | -0.165
CACCCCGC | 0.28
ACGCACCT | -0.039
CTTGTGAC | -0.181
ATGGACCG | 0.0553
CCATACCA | -0.0905

Sequence | PBM E-score
CATGGTTC | 0.0217
ATTGAGGC | 0.0511
AGCTCAGA | -0.132
CAGGTTCC | 0.0369
GGTCTTAC | -0.0198
ACTTGGCC | -0.0011
GCGGTGTA | 0.132
AGATACCT | -0.0813
CTAGAAAG | -0.178
GGGCAATA | 0.107
ATATCAGC | -0.129
CGACTTTA | -0.0556
TGAATGAA | -0.101
AAAGACGG | 0.132
AACGTGTA | -0.182
CGGGCAGA | 0.252
CACTCAAA | -0.13
GAACAACA | -0.0739
AGAAGACG | -0.0192
CAGTGCGG | 0.257
CTTTCTAC | -0.141
CTAAACTC | 0.133
TCATTACA | -0.107
ATTACATA | -0.25
AGATTACT | -0.149

Sequence | PBM E-score
ACCGTGGC | -0.184
ATGATGAC | -0.104
AATCAAAG | -0.158
CTCAGCAA | -0.164
AACACATG | -0.246
CAGGGCTA | -0.231
AGTCTATA | -0.284
AATTAAAG | -0.0487
GACGGCGA | 0.111
ACATTCCG | 0.332
AACGAAGT | -0.347
AAGCGAAA | -0.0249
AGAACGCG | 0.186
CCAGGAAA | -0.12
CGCGCGAA | 0.145
ACCATCTG | -0.1
CCTTCCTA | -0.338
CCACTGTC | -0.271
AGTTAAAG | -0.276
CGCTTCTA | -0.0149
TGCTAGCA | 0.0239
GCACACTA | -0.103
GCGTTTAA | -0.0621
CCGCCTTC | 0.204
AAGTGCGA | 0.0887

Sequence | PBM E-score
CCCGAAGG | 0.177
ATGACTAC | -0.172
CTAAGCGA | -0.114
CCAGTAAG | -0.207
GCTCCTAC | 0.00447
GCGCAGCA | -0.0173
CATGTCGC | -0.0755
AGCTAGGC | 0.0766
ACGTCCCA | -0.218
ACTGCGAA | -0.0798
AGGGTAGA | -0.235
GGTACGGA | 0.263
AGCCCCCG | 0.157
ACAAGATA | -0.123
CGCCAACG | 0.0307
GGACGGAA | 0.337
GCAGCGAC | -0.0931
GGTTGCCA | 0.138
ACTGGCGC | -0.0605
CCCTTCTA | -0.199
GGCACAGA | 0.101
AGCCGCCT | 0.0327
CGCGGACG | 0.326
ACTCTGAT | 0.0218
ACGCTTTG | -0.0892

Sequence | PBM E-score
GCTATCCC | 0.0437
CAGCCTAG | -0.25
AAGCAAAT | -0.19
ATCACGAG | -0.136
AGGACCAG | -0.0204
AGCGTAAG | -0.00325
ATTGAACG | -0.114
ATCGTTGC | -0.191
CTGGTAAA | -0.036
CCACCTCG | -0.00294
ACTGCCTA | -0.365
AAAAGTAA | -0.0401
CCGAAAGG | 0.314
CACGACGG | 0.204
CGATAGCC | 0.127
AGGTGAAT | 0.152
ACATCCAG | -0.317
TGTATGAA | 0.0329
AACTTCAT | -0.114
GGGATTCA | 0.0886
CCTGTTCG | 0.0051
CTCGTATA | -0.14
AGAGAAAC | -0.148
CCAATGCA | -0.14
GTAAACGA | -0.0798

Sequence | PBM E-score
AACCGGCC | 0.275
GTGACTGA | -0.222
GCGAGAAA | 0.123
CTGGGGCA | -0.25
TAACGTCA | -0.26
AGAACCCC | 0.191
AAGGCGCA | -0.042
CAATGAGG | -0.263
AGTGCTAT | -0.239
CAATAGGC | 0.0723
CTGTATGC | -0.106
GAAAGATC | 0.0432
GGGGGGAA | -0.0902
GAGGGGCA | -0.204
GGAAGGTA | 0.00123
GAGTAACC | 0.119
ACCCTTTC | -0.115
ACAGACGC | -0.0922
GAACGTGA | 0.0532
GCCTCGTA | -0.116
CACCTGCA | -0.17
GTAGCCGA | -0.0602
CATGCTAA | -0.33
GACGCTCC | 0.208
CGTCGGAG | 0.441

Sequence | PBM E-score
GGGCGCCC | 0.267
CACGTCTC | 0.0617
ATAAACCG | 0.189
CTAATGCA | -0.096
GCCTGAAA | 0.0892
GCGCACCC | 0.117
ACACACGG | 0.254
AACCGACC | 0.0753
ATGCTGAG | -0.171
CAACGCAG | -0.139
GAATAACC | 0.018
AATAAGCC | 0.00863
ACTGGTCT | -0.161
CGCAGTTA | 0.2
CCGCCTGA | 0.241
ATGAGCAT | -0.117
CAGGTTTA | 0.105
ATGAGAAA | -0.118
TAAGACGA | -0.289
AGCGATGA | 0.0555
ACTAGACT | -0.254
AGTGTCAA | -0.143
CAGATATC | -0.00483
ACGGTGCC | 0.111
ACAAAGTC | 0.0527

Sequence | PBM E-score
CCGCTGAC | 0.192
AGTGAAAA | 0.114
ACCTAGGT | -0.257
CCCGCACG | 0.225
GAATCACC | -0.123
GTATCGCA | -0.0427
CGGGACCG | 0.339
TCAATCGA | -0.136
ATCCCAAA | -0.0503
CAGAGTGG | -0.286
AGAAACAG | -0.123
AGACGCCT | -0.27
GATTACCA | -0.0593
CATTAGGG | -0.263
AAAGTAGT | -0.295
ACGTAGTG | -0.115
ACATCACA | -0.0756
GCGTCAGA | -0.179
GCCGATTA | 0.224
AACTACTA | 0.116
CCAGGCCC | -0.117
ATTGCCCC | -0.0217
CCTACTAC | -0.0594
GGCCTACC | 0.0107
TAACTGGA | -0.131

Sequence | PBM E-score
GCCGTGCA | 0.0166
CCTCGTAC | 0.0935
AACTTTTA | -0.11
ATGAGTAC | -0.176
CCTAGGTC | -0.214
CTGTCAAG | -0.178
GCTTTACC | 0.0949
CCTCAAAA | -0.00965
CTGACAAG | -0.153
GGAACCCC | 0.259
AAGACGCC | 0.024
CTAATATA | -0.212
AGGCCAGG | -0.0812
ATCAAAAG | 0.0443
AGTAAGCC | 0.00509
AAGGTCTG | -0.128
ATTTCGCA | 0.151
CCAATTCG | -0.107
CGTAAGTA | 0.102
AGATAAGC | -0.209
CCCAAAGG | -0.115
CTCACATC | -0.188
AGGGAGAA | -0.124
CAACCAAA | 0.0454
AACTCTAC | -0.263

Sequence | PBM E-score
ACAAGTAG | -0.172
CCTCTTAA | -0.00018
CATTGCTA | -0.0953
CCACTACA | -0.0842
GTGCAATA | -0.0843
AAATGCGC | 0.254
GACCCATA | 0.0506
GATAATGA | -0.0199
AACCGTTA | -0.283
AGGTGTCC | -0.0636
AAGAAAGT | 0.00752
GGTCATCA | -0.189
ACTCACGC | -0.229
CATCGTAA | -0.0485
ACTCTATA | 0.0902
CATATATA | -0.00984
GAGCTACA | -0.0119
AGGGACCC | -0.149
CCTGAGAC | -0.178
ACGATCGG | 0.334
CGCCGTTC | 0.153
TCCTTTCA | -0.127
AGTAAAGC | -0.0131
AACCGCCG | 0.3
AACAGGAC | -0.0455

Sequence | PBM E-score
AGACAATG | -0.115
CAAGATAA | 0.0506
ATATGTAA | -0.187
ATAATGGG | -0.12
CGGACGAC | 0.289
ACTCCGTA | 0.443
AGACCAGC | -0.183
ACGGAACT | 0.321
AGAGATCA | -0.309
CTGTAATC | -0.16
ATCGAAAT | -0.128
CAAGTTCG | -0.0793
ATCGACTA | -0.229
TATCAGCA | -0.0153
CAAGATGA | -0.292
ACCCAAGG | -0.0719
TAACGGGA | 0.117
GCTCCGAC | 0.374
ATTCTGCA | -0.0806
